Assay results reported in a collection of fitness landscapes (doi:10.1126/science.1257360).
Some of the results follow.

B1: PhoQ; a variant is named by its letters at X, in order, P23837 (parent)
chain: MKKLLRLFFPLSLRVRFLLATAAVVLVLSLAYGMVALIGYSVSFDKTTFRLLRGESNLFYTLAKWENNKLHVELPENIDKQSPTMTLIYDENGQLLWAQRDVPWLMKMIQPDWLKSNGFHEIEADVNDTSLLLSGDHSIQQQLQEVREDDDDAEMTHSVAVNVYPATSRMPKLTIVVVDTIPVELKSSYMVWSWFIYVLSANLLLVIPLLWVAAWWSLRPIEALAKEVRELEEHNRELLNPATTRELTSLVRNLNRLLKSERERYDKYRTTLTDLTHSLKTPLXXLQXXLRSLRSEKMSVSDAEPVMLEQISRISQQIGYYLHRASMRGGTLLSRELHPVAPLLDNLTSALNKVYQRKGVNISLDISPEISFVGEQNDFVEVMGNVLDNACKYCLEFVEISARQTDEHLYIVVEDDGPGIPLSKREVIFDRGQRVDTLRPGQGVGLAVAREITEQYEGKIVAGESMLGGARMEVIFGRQHSAPKDE

Variants of: B1
Assay: enrichment ratio after two sorts for PhoP signalling (ratio (wild type AVST 3.29)); higher = more functional
Conditions: with PhoP (E. coli)
For DRWL, the enrichment ratio was ≤ 0.25.
In the case of QING, the enrichment ratio is reported as ≤ 0.25.
With KVKK the enrichment ratio was ≤ 0.25.
SNQR was tested, and the enrichment ratio was ≤ 0.25.
For LNPI, the enrichment ratio was ≤ 0.25.
With SATD the enrichment ratio was ≤ 0.25.
With NCDP the enrichment ratio was ≤ 0.25.
For MECH, the enrichment ratio was 56.6.
YDFN was tested, and the enrichment ratio was ≤ 0.25.
In the case of KLCW, the enrichment ratio is reported as ≤ 0.25.
In the case of GYFM, the enrichment ratio is reported as ≤ 0.25.
For PTKQ, the enrichment ratio was ≤ 0.25.
RAHH was tested, and the enrichment ratio was ≤ 0.25.
In the case of YNPC, the enrichment ratio is reported as ≤ 0.25.
For QDWA, the enrichment ratio was ≤ 0.25.
For DCME, the enrichment ratio was ≤ 0.25.
For YQGR, the enrichment ratio was ≤ 0.25.
With IFFL the enrichment ratio was ≤ 0.25.
In the case of SLDE, the enrichment ratio is reported as ≤ 0.25.
In the case of MSKR, the enrichment ratio is reported as ≤ 0.25.
For PNST, the enrichment ratio was ≤ 0.25.
KAAR gave an enrichment ratio of 2.14.
With QIMI the enrichment ratio was ≤ 0.25.
With STNQ the enrichment ratio was 1.23.
In the case of PDDG, the enrichment ratio is reported as ≤ 0.25.
With PEFP the enrichment ratio was ≤ 0.25.
In the case of LMVF, the enrichment ratio is reported as ≤ 0.25.
For RVFY, the enrichment ratio was ≤ 0.25.
For RVCE, the enrichment ratio was ≤ 0.25.
With FTAS the enrichment ratio was ≤ 0.25.
Variant ALAY has an enrichment ratio of 1.84.
For WQLS, the enrichment ratio was ≤ 0.25.
For IPDL, the enrichment ratio was ≤ 0.25.
KRPI was tested, and the enrichment ratio was ≤ 0.25.
MDYA was tested, and the enrichment ratio was ≤ 0.25.
With YWWM the enrichment ratio was ≤ 0.25.
In the case of TFMD, the enrichment ratio is reported as ≤ 0.25.
With IHVA the enrichment ratio was ≤ 0.25.
With PTCV the enrichment ratio was ≤ 0.25.
With YEFP the enrichment ratio was ≤ 0.25.
For ISFK, the enrichment ratio was ≤ 0.25.
LHNF was tested, and the enrichment ratio was ≤ 0.25.
For HDFW, the enrichment ratio was ≤ 0.25.
With QCCF the enrichment ratio was ≤ 0.25.
VSMG showed an enrichment ratio of 2.61.
In the case of NPFF, the enrichment ratio is reported as ≤ 0.25.
With SCHG the enrichment ratio was ≤ 0.25.
DQGG was tested, and the enrichment ratio was ≤ 0.25.
For RVTM, the enrichment ratio was ≤ 0.25.
In the case of WCPR, the enrichment ratio is reported as ≤ 0.25.
HCII was tested, and the enrichment ratio was ≤ 0.25.
With DSQW the enrichment ratio was ≤ 0.25.
YWHF was tested, and the enrichment ratio was ≤ 0.25.
For AKHQ, the enrichment ratio was ≤ 0.25.
In the case of HHAY, the enrichment ratio is reported as ≤ 0.25.
For SCCT, the enrichment ratio was 3.81.
For WCGE, the enrichment ratio was ≤ 0.25.
For GSTK, the enrichment ratio was ≤ 0.25.
For WIRY, the enrichment ratio was ≤ 0.25.
With VRYT the enrichment ratio was ≤ 0.25.
For KFIR, the enrichment ratio was ≤ 0.25.
With FLQS the enrichment ratio was ≤ 0.25.
With AHWP the enrichment ratio was ≤ 0.25.
FRAE was tested, and the enrichment ratio was ≤ 0.25.
In the case of FPRL, the enrichment ratio is reported as ≤ 0.25.
With MAGR the enrichment ratio was ≤ 0.25.
With TMWQ the enrichment ratio was ≤ 0.25.
In the case of FMTP, the enrichment ratio is reported as ≤ 0.25.
With SPRG the enrichment ratio was ≤ 0.25.
For HGKL, the enrichment ratio was ≤ 0.25.
In the case of IISH, the enrichment ratio is reported as ≤ 0.25.
With RVKF the enrichment ratio was ≤ 0.25.
With GWLA the enrichment ratio was ≤ 0.25.
In the case of IYSR, the enrichment ratio is reported as ≤ 0.25.
For TMWK, the enrichment ratio was ≤ 0.25.
In the case of AFEN, the enrichment ratio is reported as ≤ 0.25.
Work on TGAS yielded an enrichment ratio of 14.
With YSVC the enrichment ratio was ≤ 0.25.
For KYET, the enrichment ratio was ≤ 0.25.
For AVGK, the enrichment ratio was ≤ 0.25.
DARV was tested, and the enrichment ratio was ≤ 0.25.
In the case of SLEI, the enrichment ratio is reported as ≤ 0.25.
For WPEK, the enrichment ratio was ≤ 0.25.
HTKD was tested, and the enrichment ratio was ≤ 0.25.
In the case of RWIG, the enrichment ratio is reported as ≤ 0.25.
ELCK showed an enrichment ratio of 1.28.
SKPG was tested, and the enrichment ratio was ≤ 0.25.
YIGH was tested, and the enrichment ratio was 0.76.
With VPLV the enrichment ratio was ≤ 0.25.
In the case of MDDQ, the enrichment ratio is reported as ≤ 0.25.
In the case of IMPN, the enrichment ratio is reported as ≤ 0.25.
In the case of WMLP, the enrichment ratio is reported as ≤ 0.25.
PEGS was tested, and the enrichment ratio was ≤ 0.25.
MFAV was tested, and the enrichment ratio was ≤ 0.25.
With SEIS the enrichment ratio was 8.01.
HVRL was tested, and the enrichment ratio was ≤ 0.25.
In the case of IKLT, the enrichment ratio is reported as ≤ 0.25.
AGMS showed an enrichment ratio of 3.53.
In the case of DMQI, the enrichment ratio is reported as ≤ 0.25.
In the case of NWNL, the enrichment ratio is reported as ≤ 0.25.
In the case of LMHQ, the enrichment ratio is reported as ≤ 0.25.
For LFGI, the enrichment ratio was ≤ 0.25.
SKKI was tested, and the enrichment ratio was ≤ 0.25.
For EWSW, the enrichment ratio was ≤ 0.25.
In the case of TLWV, the enrichment ratio is reported as ≤ 0.25.
For EQFM, the enrichment ratio was ≤ 0.25.
With LACF the enrichment ratio was ≤ 0.25.
In the case of DHTF, the enrichment ratio is reported as ≤ 0.25.
With QNVF the enrichment ratio was ≤ 0.25.
For REKR, the enrichment ratio was ≤ 0.25.
HFQV was tested, and the enrichment ratio was ≤ 0.25.
With NVYW the enrichment ratio was ≤ 0.25.
With GPYH the enrichment ratio was ≤ 0.25.
In the case of DWGP, the enrichment ratio is reported as ≤ 0.25.
VKKM was tested, and the enrichment ratio was ≤ 0.25.
With SKNV the enrichment ratio was ≤ 0.25.
FLTP was tested, and the enrichment ratio was ≤ 0.25.
For VRQA, the enrichment ratio was ≤ 0.25.
GHGD was tested, and the enrichment ratio was ≤ 0.25.
Work on SSSA yielded an enrichment ratio of 9.48.
VGCL was tested, and the enrichment ratio was 4.33.
ELAG was tested, and the enrichment ratio was ≤ 0.25.
In the case of FGMC, the enrichment ratio is reported as 4.08.
HNYG was tested, and the enrichment ratio was ≤ 0.25.
VLPC was tested, and the enrichment ratio was ≤ 0.25.
With DYFT the enrichment ratio was ≤ 0.25.
For MTKL, the enrichment ratio was ≤ 0.25.
For TAKC, the enrichment ratio was ≤ 0.25.
In the case of KDMN, the enrichment ratio is reported as ≤ 0.25.
FCLM showed an enrichment ratio of 12.7.
EHGT was tested, and the enrichment ratio was ≤ 0.25.
With CTFS the enrichment ratio was ≤ 0.25.
ECYS was tested, and the enrichment ratio was ≤ 0.25.
With RVPI the enrichment ratio was ≤ 0.25.
In the case of VDCA, the enrichment ratio is reported as ≤ 0.25.
IMDM was tested, and the enrichment ratio was ≤ 0.25.
Work on TTTL yielded an enrichment ratio of 13.4.
With SDDE the enrichment ratio was ≤ 0.25.
With YQTS the enrichment ratio was ≤ 0.25.
For IQCN, the enrichment ratio was ≤ 0.25.
For VMWA, the enrichment ratio was ≤ 0.25.
For SKAK, the enrichment ratio was ≤ 0.25.
In the case of TSQC, the enrichment ratio is reported as 14.5.
For YWGI, the enrichment ratio was ≤ 0.25.
For MIER, the enrichment ratio was ≤ 0.25.
For QEDR, the enrichment ratio was ≤ 0.25.
For EKLA, the enrichment ratio was ≤ 0.25.
With KHIT the enrichment ratio was ≤ 0.25.
AVCF was tested, and the enrichment ratio was 10.1.
With PMAN the enrichment ratio was ≤ 0.25.
With LYIA the enrichment ratio was 0.422.
VGGD was tested, and the enrichment ratio was ≤ 0.25.
MVYA was tested, and the enrichment ratio was ≤ 0.25.
